Values belong to the binder of their own block, whether it stands above or below them.
What was measured:
[1] = molecular target: T1, Full length human MSP 689R (wild type + C672A + His tag), active two-chain form (human, UniProt P26927 19-483; P26927 484-711); assay: BLI using RON-Fc at 30 C
T1 construct: Pro-MSP converted with sHepsin into the disulfide-linked alpha/beta heterodimer; Numbering is that of pro-MSP; also called full-length MSP; human full-length MSP
Description: Real-time kinetic measurements of MSP binding to RON were conducted using an Octet RED384 (ForteBio, Inc). Samples or buffer were dispensed into 96-well microtiter plates (Greiner Bio-One North America, Inc.) at a volume of 200 μl per well. Anti-human IgG Fc Biosensors were used for the experiments. Each experiment consisted of three steps: incubation with ForteBio Kinetic buffer diluted 1:10 in PBS assay buffer to establish an equilibrium for 120 s (baseline), incubation with 10 μg/ml RON-Fc in assay buffer to coat the biosensor with binding target for 900 s (load), incubation with MSP, MSP β or scMSP in assay buffer containing various concentrations (75-4.7 nM, 2-fold dilution series) for 400 s (association), and incubation with assay buffer to measure the off-rate of MSP for 400 s (dissociation). Operating temperature was maintained at 30° C. Data were generated automatically by the Octet Data Acquisition 7.0 software. Each data set was fitted globally to a simple one-to-one binding model using ForteBio Analysis Software 7.0 to determine the kinetic parameters kₐ and kd. The equilibrium dissociation constants (KD) were then calculated as a ratio (koff/kₒₙ) of these rate constants.

[2] = molecular target: T1, Full length human MSP 689R (wild type + …); assay: SPR capturing RON-Fc at 25 C
Description: (§1) To determine MSP protein binding kinetics to hRON-Fc or mRON-Fc fusion proteins, between 50 and 100 response units (RU) were captured on each of three immobilized anti-human Fc surfaces. Various concentrations (50-0.78 nM, 2-fold dilution series) of MSP, MSP β, MSP α or scMSP were injected in HBS-P buffer (10 mM HEPES, pH 7.5, 150 mM NaCl, 0.005% P20) at 25° C. with a flow rate of 30 μL/min and dissociation monitored for 4 min. Between measurements, the biosensor surfaces were regenerated with a 2 min pulse of 10 mM glycine-HCl pH 1.5.

[3] = molecular target: Human MSP β 689R with wild-type C672 (HGF leader + V484-G711 + C588S + C672C + His tag) (human, UniProt P26927 484-711); assay: SPR capturing RON-Fc at 25 C
Description: as §1

[4] = molecular target: T1, Full length human MSP 689R (wild type + …); assay: SPR (Biacore), anti-Fc chip, murine RON-Fc captured and MSP protein injected; table headed 'Similar High Affinities for Murine RON'
Description: Binding kinetics of RON to MSP β-Fc fusion proteins and MSP proteins to RON-Fc fusions were determined using a Biacore 3000 optical biosensor equipped with a research-grade CM5 sensor chip (GE Healthcare). Amine coupling reagents, N-ethyl-N′-dimethylamino-propylcarbodiimide (EDC), N-hydroxy-succinimide (NHS) and sodium ethanolamine HCl, pH 8.5, were obtained from GE Healthcare. Standard coupling protocols were used to tether a rabbit anti-human IgG1 or rabbit anti-murine IgG2a (Jackson ImmunoResearch Laboratories) onto the biosensor surface. A biosensor chip that was subjected to the amine coupling procedure with no protein coupled was used to correct for non-specific binding. […] Various concentrations (500-3.9 nM, 2-fold dilution series) of RON-His, were injected in HBS-P buffer (10 mM HEPES, pH 7.5, 150 mM NaCl, 0.005% P20) at 25° C. with a flow rate of 30 μL/min and dissociation monitored for 240 sec. Between measurements, the biosensor surfaces were regenerated with a 120 s pulse of 10 mM glycine-HCl pH 1.5 followed by a 120 s wash with running buffer.
To function as a RON agonist, MSPβ-IgG2a fusion proteins must bind the RON receptor. To assay binding, surface plasmon resonance was used to measure the affinity of full-length human MSP, human and mouse MSP β, and a number of human and mouse MSPβ-IgG2a fusions for immobilized RON receptor. […]

Kd [1]: 9.9 nM | Kd [2]: 6.4 nM | koff [2]: 0.0033 s⁻¹ | kon [2]: 511000 M⁻¹ s⁻¹ | Kd [3]: 6.3 nM | koff [3]: 0.0066 s⁻¹ | kon [3]: 956000 M⁻¹ s⁻¹
B1: Human RON-hIgG1 Fc (RON Sema/PSI/IPT1 fused to human IgG1 Fc) (Fc fusion)
chain: [letters of about 550 residues left out]PKLTEFHPHSGPLRGSTRLTLCGSNFYLHPSGLVPEGTHQVTVGQSPCRPLPKDSSKLRPVPRKDFVEEFECELEPLGTQAVGPTNVSLTVTNMPPGKHFRVDGTSVLRGFSFMTGTVT[letters of human IgG1 Fc left out]
notes: also called RON-Fc; hRON-Fc

Kd [4]: 5.3 nM
B2: Mouse RON-hIgG1 Fc (murine RON Sema/PSI/IPT1, natural leader + R33-V684, fused to human IgG1 Fc) (Fc fusion)
chain: STNLNWQCPRIPYAASRDFSVKYVVPSFSAGGRVQATAAYEDSTNSAVFVATRNHLHVLGPDLQFIENLTTGPIGNPGCQTCASCGPGPHGPPKDTDTLVLVMEPGLPALVSCGSTLQGRCFLHELEPRGKALHLAAPACLFSANNNKPEACTDCVASPLGTRVTVVEQGHASYFYVASSLDPELAASFSPRSVSIRRLKSDTSGFQPGFPSLSVLPKYLASYLIKYVYSFHSGDFVYFLTVQPISVTSPPSALHTRLVRLNAVEPEIGDYRELVLDCHFAPKRRRRGAPEGTQPYPVLQAAHSAPVDAKLAVELSISEGQEVLFGVFVTVKDGGSGMGPNSVVCAFPIYHLNILIEEGVEYCCHSSNSSSLLSRGLDFFQTPSFCPNPPGGEASGPSSRCHYFPLMVHASFTRVDLFNGLLGSVKVTALHVTRLGNVTVAHMGTVDGRVLQVEIARSLNYLLYVSNFSLGSSGQPVHRDVSRLGNDLLFASGDQVFKVPIQGPGCRHFLTCWRCLRAQRFMGCGWCGDRCDRQKECPGSWQQDHCPPEISEFYPHSGPLRGTTRLTLCGSNFYLRPDDVVPEGTHQITVGQSPCRLLPKDSSSPRPGSLKEFIQELECELEPLVTQAVGTTNISLVITNMPAGKHFRVEGISVQEGFSFGRAQVT[letters of human IgG1 Fc left out]
notes: also called mRON-hFc; murine RON-Fc

From patent publication US20160032013A1 (Genentech, published 2016)
